This is one part of the list. At the low end of the ranking the order means little. The protein was read in a cell extract, so binding may be indirect.
Biological target: T1, HNF4alpha2 (COS-7 nuclear extract) (UniProt P41235)
T1 sequence: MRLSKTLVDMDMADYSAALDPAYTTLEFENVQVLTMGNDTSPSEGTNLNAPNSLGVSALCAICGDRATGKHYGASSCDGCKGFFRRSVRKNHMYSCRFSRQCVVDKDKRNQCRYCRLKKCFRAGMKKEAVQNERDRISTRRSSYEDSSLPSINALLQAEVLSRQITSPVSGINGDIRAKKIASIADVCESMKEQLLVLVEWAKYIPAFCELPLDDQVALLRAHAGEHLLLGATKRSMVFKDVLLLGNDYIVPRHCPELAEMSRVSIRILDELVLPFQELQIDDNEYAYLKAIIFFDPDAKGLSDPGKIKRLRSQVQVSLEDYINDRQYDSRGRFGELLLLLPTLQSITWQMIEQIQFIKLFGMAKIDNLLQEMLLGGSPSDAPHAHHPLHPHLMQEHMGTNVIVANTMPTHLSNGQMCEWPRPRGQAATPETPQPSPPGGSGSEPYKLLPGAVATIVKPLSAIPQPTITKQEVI
Test: protein-binding microarray
Conditions: COS-7 nuclear extract on double-stranded Agilent 4x180k PBM; binding buffer, salt, pH and temperature not given; high values mean tight binding; double strand, one strand shown; sequences stand for … in …GCCTAGGGAGATTAGAGTATCGGTCGA

Sequence | binding signal (log2 normalized intensity)
AGAGGAGGCCCACACCCCTGGGGAAGGCAG | -1.16
TTGCCCAGTATTGATGTGAGGGTAGGAGCC | 0.702
TGAGTAATTACTATAAATGCTCTGGCCTTT | 1.65
AGACAAATGCTTTTGAACACCTGTCCCTAG | -1.17
GTCCTGCCACATCCCCCACACCGAGATAGT | 3.97
GTGAGGCAATGCCTCGCCCTGCTTCGGCTC | -1.18
CCTTATCTCGTTCTGATAGCAAGGAGAATT | 0.627
AAAATCTTCAAACAACCCTTCGCTAGAGCA | -1.08
GGGTCACGAGACGGTGTCCCTGGCCAATCC | -1.04
CTTACTTGGCATCATCAAACAAGATTTATC | -0.732
AAGATAAAGGGACAGGGGTCATCAGGGGTC | 2.66
CCTTAGCTTATCGTCCCTTCCCTCTGTCTT | 1.61
ACTGTGATGGAACAGTGTAACACATGGCAT | 1.07
AGCACAATCAAAGCAATGGCTACCAAGGAG | -1.11
TAGCCACAATAATGTGATAAGAATTTTGTG | 0.563
CAGGGTCAGTGCAATCACGCCTCAAATGAG | -1.09
CAGTGCAAGGGACCTAGGTGAGCAGGCAGA | -1.1
GGGGAGAGGGGGTTAAAGGTTATTTGCTCA | 4.32
CACCCTGCTCCAGCCAGAGGCCTTATCTGG | -1.11
GGCATTAATTCTTCTTTGAAAGTTTGGTGG | 2.23
AATGGAAAGAATATGAACTTTGGAAATGCA | 1.99
ACTCAGTCCTTTCAGGACACCTTCAGGGCT | -1.19
GGGGAGGCAGGAGTGGGAGGCTGGGGCCTC | -1.03
TACACTACAGGCAAGAGAATCAGAGAGATA | -1.14
ACCATGCTCTAGTCTTCCTGTCTCCATTGC | 1.39

Sequence | binding signal (log2 normalized intensity)
ATCACCATCAGATCTGGGTGTGCCATTCTT | 0.838
CAGGTTCATTCTTTAAGTGTGGGGTGACTG | 1.83
AAGTGACCCTCAGACACACAGTCCACAGGC | -1.16
AACATGCTGCAGGCATTTCTGGAATTCTCT | -1.2
AAATCTCTCTGGTCAAAGGGTAAAGATTAT | 2.51
CAAAGTCCAAAGCCTCATCTGAGATAAGGC | 1.83
GTCACAGTATTCATTCCCCTAGTATATTGG | 2.13
GCAGAGGTCAATGTCCACACCCCAGTTTCA | 4.72
TTTGTTCATATCGGCTCCATCTAGCAGCCC | -0.983
ACCTTTTTTTCATGCAAATTTCCGTGTCGA | 1.59
GGCAAATTGAAACCTTGCGCAAGTCCCAGA | -1.07
ACCTGCCAAAGAAGAAAACAATGACCTCTG | 3.49
ACAAAATACAAGTCGTAAAGACCTTGCTGA | -0.977
CTGGAATGATACGCCGGCCAATCCGGCTGG | -1.08
GAGAGTAAGTTTCTGTCTCACCTGTAAATG | 0.585
AGGATACCTAGTAGGCACAAAGGTGCAAAG | 0.000482
AGCAGTTCACACTCCCACCAGCATGGTGAT | -1.04
AGAGAAAGGGTCAATGTGATCAGGTGTGGG | 1.3
TTCTCAGGCATCTCTGGGGGTCAGAAGTCC | 4.43
AGTTACTTAAGCCATCTGCTGCCTCAGTTT | -1.1
AACATGGGCTTAAGACAAGAATGTGAGATA | 0.211
CAAAGGTCACTTAGTCCCTAAGTCTTTCAA | 2.79
TTCCTGGAAATCCCGAAATAGAGCCAAACA | -1.23
CCTAGCAAACAATGAGGACGTGTGTGTTCT | 1.93
CTGCCTAACAGGAGTGTTTTTTTCACCTGG | 0.67

Sequence | binding signal (log2 normalized intensity)
AGCCCAGTCTTGGCCCCACCGGTCACGACC | 1.27
AAGGTGCTACCACGAGAGTAGAGAGTTGTT | -0.729
TATAGGGGAGGTCCTAAAGAGGATATCCTG | -0.197
CTTTTCTGCTTTTGGAATTTGACCTCATTT | 6.91
GTGTACTGAGCAGGGTCCAACCCACAGGGG | 0.66
CACAGGTGACCTCTGGCCACTGCAGGGAGG | 1.75
CAATCAGTGTGTTGACATTTGAACCCAACC | 4.22
AGGACTTGCGGTGTTACACTTGTTTAAATG | 1.74
GGGTCATCAGGGGTCCTGGCAGCACCTGAA | -0.921
ATTGCGGGCTGGTTGGCACGCTTAGGGAAC | -1
ATATTGACATTCCAGCCTCCAGCTACTCAC | -1.06
GCAGATGAAGTCCAAAGGCCATCTGCTGGA | 2.95
GTTATCAACCTTATCAGCAGGACACCAAAC | -0.767
GCAGCGGGCAGCCCGTGTGGGCGGGTGCAG | -0.856
ACCATGAGAGGGTTAAAAACCAGAATGACA | -1.22
GGATTAAAGGATCAACTTTCAGAAGGGGAC | -1.06
TGCTATTAAGCACTAGAAAGTCTTGAAGTC | -0.734
TGGTGAGCAGGTTAATTATAATCGCAGAAT | -0.0715
AGATGAGCTCTGAACTAACAATTCTTTCTG | -1.15
TGTTTGCATAAAGTTAAACTTTAAATTTGC | -0.247
CACCCTCAAATCAGTGAAGGCCTCTGATGA | -0.871
AAGGTTCCAGGGAACTGTCCACCAAGGAGG | -1.13
TTCTACTCTCCCCAGTTCAAAGGTTAAGAC | 5.21
AAGTACACACTGTACCCGTCCACCTTTGGA | 2.66
TCCCCAGATTCCAGGGGAGGGTAAGAGTCC | 1.88

Sequence | binding signal (log2 normalized intensity)
CTGAGAGACTTTATCCGTATAACAAGACAG | 0.0517
CCTTTTTCTGTTCAATGGTGCTTTTGATAT | 2.21
TCCCAAGTAGCTCATTTATTATTTGTCTGG | 1.71
GTGCCATGCCAAAGAAGCAAAGGTTGGCTA | -0.695
GAAAGAGGGTGAAAGTACAGTGATGTTTGT | 2.1
GACATAAATCACATTGTTAGCATAGCCTAT | -0.761
GCTCAGTAAATTATCTTGATGGTTAAAGTC | 0.851
GCCAATTAGAAGGCTCCCTGCTGCGGAGAG | -1.05
ACACACCGTTAGCCAATATTTGCAAGGCTG | -1.38
GATCATAAATGCCTCCCCCTCTTTATCTCC | 3.3
CCTGAAATTGAGATGAGATGGTCAAAGGTT | 4.55
TTAAGACTCAAAGTTCAGTCGAATTTGGTT | 1.57
GGTGAACTTTGAGACTATCCTTGGACCGCA | 2.51
CTCTGGGGGAACCTCTGGTCAAATTCCAAC | 2.32
TGAAAAGATAGCTTGAGGCCAGCTCATAGG | -1.3
CACATTCGAAGTTTTGCTCCTTTGAGCACT | 1.16
CTTTGCCCTTTGGGAAGGGGCAAAAGAGAG | 2.43
GGACAAAGTTCCCCGGGCAGCTGTGTTTGC | 0.389
CTGTCTGCTGAGGATGTGGCCCCGAGATAA | 2.06
TGTGGAATGGCAACATGTGGGCAAATAGGA | 0.477
TTTTGATTGCTTAGGCTCTTGTTATGAAAC | 0.658
GCATGCCCCGCGCCGCGTCCCTTCCCCCGG | 3.82
CAGTATCAAAGTCCCCAGATAAGACAAAGT | 1.92
CCCAAGATGGATTGGGTCCACACATTCCTA | -0.811
TCTGATTGGTTGGAGAAAGCAGCCAACCAG | -1.09

Sequence | binding signal (log2 normalized intensity)
GAGAAGACATAGTTTTTGCCCTTAAGCAGC | 1.55
TCAGCCCACTTCCTACCATCAAAGGTTGTC | 1.07
CAGTAACCTAAGTCAGGAAACTGACTCAAC | -1.14
CTTTTGGAATCCCCATCTCACCATAAACTC | 1.88
CAAAGATTGTGAGACAAGAGAAGAGAAAAA | -1.11
GGGGCCCAGGTCGAAGTTTATGTTTACTGT | 1.36
GGCCCAGAGCACAACCTTTGGCCGTGCATG | 2.45
ATCCTCAGGGTTCATAGATGATAGTGATAA | 0.98
CGCATGCATAACCAAACAGAGAGAAAGCAG | -1.03
TACCTGTTTGCAAGCCCAAAGCCCCCAGAG | 3.35
GGCTTTTGCAGTCACTCTCTAGAATGAGCC | -0.602
CAGGATTCTTGCTACAACTGGACTAGACAG | -1.07
TGACCTGCAATGAAAGTCCACTTGTCTGGC | 1.95
TTGCCCACCCCCCAAGTAGAGAGCAATTAT | 3.78
GAACCCAGACTGCATTTTCATCTTGCCTTT | 0.316
AGTATTCATTCCCCTAGTATATTGGCTTGG | 1.54
TGTGCTATTTTTGGCTTGGTTCCACATCAG | 1.75
TAGAAGAAAGCTTCATAGTGGTTTGACTTT | 1.17
TACAAAACCCCTTATCAGGTAGAACATTGC | 0.869
TTAGAGGCTCAGGTAAAGGCATGCTTGGCA | -1.16
CTGGGAAGGCTCGTTCTCGCGAGAGTTCAG | 0.48
ACGTCATTTTGTCACCTACATGTGAGAGAG | 0.937
GCAAACTCTAGCTGTCCTCCTCTGAAGGAA | -1.2
GTTCACAATAAGAGGGTATACTATTTGCTA | -1.1
CCAGCTAAAACTGCAGATTGACTCAGGCAT | -1.19

Sequence | binding signal (log2 normalized intensity)
AGCATGTTTGGTGACCCGTGACCCTCAGGA | 3.04
CCTAAGCCCTGCTCAGGGAATGTGGGTCCA | 2.18
AAGCCTTTCTGAGGAGCTAACAGTAAAACT | -1.17
CTGCCAAAGGTAAAAAATGCAAGTTTATCG | -1.12
TTGAAGCTCTGGTTCAAACAAGGCCAAAGT | 1.72
GTAAGCACAAAGTACAGCTTTTTGTTTGTG | 1.95
GATGGGCAACTGTCCGAGTTGTCAAAAGGG | -1.16
AGTTACGTAATGTGTCCCCACATCTGTGAA | 1.7
GGGACCTGAGAACATGTAATCATTTGGGAC | -0.802
CTTCTCATCTTTATCATGTGGTATTAACAT | 2.39
CACTAAAGTTACAAGATCTTTGGACTATTG | 3.79
CCGGCAGCAGCCTTGCCTTTGATGTGTCCA | 0.415
GTGCTAGAGAAAGGACCAGTTGAGTGCAAA | 0.18
GTTTACATTCCAGGGTGAAATTCAACAGAA | -1.08
CACCCCACCCCCTATCTTGTGTAATAACGA | 3.15
TGCAGTACTATGCAATAACCAGGGAGTGGC | -1.15
TGTACCTTTGACTATGGGCATGAAGTCAAA | 0.743
GAAAAAACCCATCCACCCATCCAAAGGTCA | 4.97
CAGTTTCTCTGTGAATCCACAGTAAAACAT | -1.19
CCAGGCAGCACAATTTGTGTCTCTCACCTG | -0.903

— article PMC10726135
